We go through one molecule from patent US20180161402A1 (CSL BEHRING LENGNAU, published 2018).

The target in this assay is T1, rVIII-SingleChain (recombinant single chain Factor VIII) (Homo sapiens (Human), UniProt P00451 20-2351).
T1 construct: also called rVIII-SC; FVIII
T1 sequence: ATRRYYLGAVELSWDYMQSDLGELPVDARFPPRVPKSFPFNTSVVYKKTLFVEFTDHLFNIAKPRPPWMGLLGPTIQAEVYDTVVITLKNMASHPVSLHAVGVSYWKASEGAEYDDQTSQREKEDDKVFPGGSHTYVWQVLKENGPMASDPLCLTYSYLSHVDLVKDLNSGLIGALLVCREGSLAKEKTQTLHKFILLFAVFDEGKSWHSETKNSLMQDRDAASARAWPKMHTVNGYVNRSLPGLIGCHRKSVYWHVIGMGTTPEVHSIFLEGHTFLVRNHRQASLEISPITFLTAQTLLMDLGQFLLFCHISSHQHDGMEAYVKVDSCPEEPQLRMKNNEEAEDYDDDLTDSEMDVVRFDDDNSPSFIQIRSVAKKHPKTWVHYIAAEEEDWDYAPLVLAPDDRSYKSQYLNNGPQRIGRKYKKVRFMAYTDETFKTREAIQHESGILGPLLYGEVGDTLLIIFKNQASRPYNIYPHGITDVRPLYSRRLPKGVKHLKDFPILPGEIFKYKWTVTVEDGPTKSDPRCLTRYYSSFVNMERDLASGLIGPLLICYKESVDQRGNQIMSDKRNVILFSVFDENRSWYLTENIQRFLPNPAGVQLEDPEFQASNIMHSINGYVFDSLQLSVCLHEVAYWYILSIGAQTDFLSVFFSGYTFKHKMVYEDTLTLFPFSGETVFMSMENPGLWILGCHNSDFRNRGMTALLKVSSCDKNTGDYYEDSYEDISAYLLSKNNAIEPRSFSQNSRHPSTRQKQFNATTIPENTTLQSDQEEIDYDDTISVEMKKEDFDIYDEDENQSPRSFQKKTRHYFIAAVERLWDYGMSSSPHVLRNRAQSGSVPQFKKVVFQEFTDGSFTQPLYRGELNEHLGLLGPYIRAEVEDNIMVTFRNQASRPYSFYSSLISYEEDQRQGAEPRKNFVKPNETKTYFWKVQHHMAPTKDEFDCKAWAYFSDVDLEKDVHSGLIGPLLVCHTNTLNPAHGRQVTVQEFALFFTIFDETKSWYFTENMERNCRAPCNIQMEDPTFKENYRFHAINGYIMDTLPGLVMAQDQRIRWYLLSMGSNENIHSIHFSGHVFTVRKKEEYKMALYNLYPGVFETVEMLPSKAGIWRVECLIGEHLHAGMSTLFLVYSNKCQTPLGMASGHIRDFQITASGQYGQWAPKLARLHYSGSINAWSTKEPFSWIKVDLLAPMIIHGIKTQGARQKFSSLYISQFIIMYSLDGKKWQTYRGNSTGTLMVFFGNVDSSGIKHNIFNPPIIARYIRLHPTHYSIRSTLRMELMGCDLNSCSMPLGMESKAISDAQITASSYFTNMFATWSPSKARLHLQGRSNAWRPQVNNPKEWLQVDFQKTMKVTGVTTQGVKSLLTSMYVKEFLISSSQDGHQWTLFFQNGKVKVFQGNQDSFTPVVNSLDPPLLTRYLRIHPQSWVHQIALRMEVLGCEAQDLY
Kind of assay: SPR (Biacore T200). The procedure: Dimeric and monomeric D′D3-FP proteins, respectively, were immobilized to the covalently coupled anti-albumin antibody by a flow of the D′D3-FP proteins (5 μg/mL) over the chip for 3 min (flow rate of 10 μL/min).
To create binding curves for FVIII, each D′D3-FP protein preparation was diluted in running buffer (HBS-P+: 0.1 M HEPES, 1.5 M NaCl and 0.5% v/v Surfactant P20, pH 7.4; product code BR100671, GE Healthcare) to concentrations of 0.25 nM, 0.5 nM, 1 nM, 3 nM and 4 nM. By performing a single cycle kinetic, samples with ascending concentrations of each dilution were flown over the chip for 2 min (flow rate 30 μL/min.), followed by a dissociation time of 10 min. with running buffer HBS-P+. All measurements were performed twice. The temperature for the measuring procedure was adjusted to +25° C.
Binding parameters were calculated using BiaEvaluation Software. The curve fitting methods were based on Langmuir equations. The input data for calculations were the molar mass of the analyte FVIII (rVIII-SingleChain), other parameters like max. RU and slopes were automatically extracted out of the fitted association and dissociation curves. The outputs of BiaEvaluation Software are the association rate constants and the dissociation rate constants, from which the affinity constants were calculated.

B1: D′D3-FP dimer (VWF fragment (1-1242) albumin fusion, dimeric preparation) (other)
chain: SLSCRPPMVKLVCPADNLRAEGLECTKTCQNYDLECMSMGCVSGCLCPPGMVRHENRCVALERCPCFHQGKEYAPGETVKIGCNTCVCRDRKWNCTDHVCDATCSTIGMAHYLTFDGLKYLFPGECQYVLVQDYCGSNPGTFRILVGNKGCSHPSVKCKKRVTILVEGGEIELFDGEVNVKRPMKDETHFEVVESGRYIILLLGKALSVVWDRHLSISVVLKQTYQEKVCGLCGNFDGIQNNDLTSSNLQVEEDPVDFGNSWKVSSQCADTRKVPLDSSPATCHNNIMKQTMVDSSCRILTSDVFQDCNKLVDPEPYLDVCIYDTCSCESIGDCACFCDTIAAYAHVCAQHGKVVTWRTATLCPQSCEERNLRENGYECEWRYNSCAPACQVTCQHPEPLACPVQCVEGCHAHCPPGKILDELLQTCVDPEDCPVCEVAGRRFASGKKVTLNPSDPEHCQICHCDVVNLTCEACQEPGGSSGGSGGSGGSGGSGGSGGSGGSGGSGGSGS[gap - about 600 residues]
notes: Dimer fraction isolated by size exclusion chromatography; Expressed in CHO K1 cells with PACE/furin, propeptide cleaved off; Captured on the chip through an anti-albumin antibody; also called dimeric D′D3-FP; D′D3 albumin fusion protein
In the case of B1, the “fold slower dissociation rate constant than to the D′D3-FP monomer” value was found to be 3 fold.
